Measured values as given in the supplement of paper PMC5919970.
Counter-ions that a name gives are not always drawn. In all, about 2,000 compounds were measured (“fractional viability relative to vehicle”: median about 0.91, lowest 2% from about 0.045 on). This is one part of the list.

System: TYKNU
Experiment: fractional viability relative to vehicle; TYKNU is a high-grade serous ovarian cancer line; higher = less growth inhibition
Conditions: 72 h
Outline: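 Drug treatment lasted 72 h, with cells grown at 37 °C in 5% CO2 in RPMI 1640 supplemented with 10% FBS. Beforehand, TYKNU control cells or their lentiCRISPRv2 knockout derivatives had been seeded at 500 cells per well into drug-stamped 384-well plates carrying a ~2100-compound library at 2 or 10 μM, in duplicate. Viability came from Cell Titer Glo luminescence, with averaged duplicate treatment wells normalised to duplicate control wells in the same plate position.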

[1] = 2uM, genotype: DNM1L knockout (sgDNM1L #1)
[2] = 2uM, genotype: sgCTRLA1 (non-targeting control)
[3] = 10uM, genotype: DNM1L knockout (sgDNM1L #1)
[4] = 10uM, genotype: sgCTRLA1 (non-targeting control)

| SMILES | fractional viability [1] | fractional viability [2] | fractional viability [3] | fractional viability [4] |
| --- | --- | --- | --- | --- |
| Nc1nc2c(ncn2[C@@H]2O[C@H](CO)[C@@H](O)[C@H]2O)c(=O)[nH]1 [Guanosine] | 0.755 | 0.929 | 0.7 | 0.845 |
| Nc1[nH]nc2nnc(-c3c(-c4ccccc4)nn4ccccc34)cc12 | 0.851 | 1.01 | 1.04 | 0.887 |
| COc1cc(N2CCC(N)CC2)ccc1Nc1ncc(Cl)c(-c2c[nH]c3ccccc23)n1 | 0.359 | 0.386 | 0.0459 | 0.0363 |
| CCOC(=O)n1ccn(C)c1=S [Carbimazole] | 0.929 | 1.04 | 0.844 | 0.994 |
| Cc1cc(NS(=O)(=O)c2ccc(N)cc2)no1 [Sulfamethoxazole] | 1.02 | 1.22 | 0.884 | 1.1 |
| CC(C)(C)C(=O)C(Oc1ccc(Cl)cc1)n1ccnc1 (stereo not drawn) [Climbazole] | 0.805 | 1.06 | 0.641 | 0.924 |
| CC(C)N(CCCNC(=O)Nc1ccc(C(C)(C)C)cc1)C[C@H]1O[C@@H](n2cc(Br)c3c(N)ncnc32)[C@H](O)[C@@H]1O | 0.87 | 1.15 | 0.732 | 1.04 |
| CC1(C)S[C@@H]2[C@H](NC(=O)C(C(=O)O)c3ccccc3)C(=O)N2[C@H]1C(=O)O (stereo partly drawn) [Carbenicillin disodium] | 1.15 | 1.17 | 0.85 | 1.07 |
| O=C(CCCCCN1C(=O)c2cccc3cccc(c23)C1=O)NO [Scriptaid] | 0.411 | 0.51 | 0.108 | 0.109 |
| C=C[C@@]1(C)CC(=O)[C@]2(O)[C@@]3(C)[C@@H](O)CCC(C)(C)[C@@H]3[C@H](O)[C@H](OC(C)=O)[C@@]2(C)O1 [Forskolin] | 0.984 | 0.895 | 0.893 | 1.07 |
| Cc1cc(OCCCS(C)(=O)=O)cc(C)c1-c1cccc(COc2ccc3c(c2)OC[C@H]3CC(=O)O)c1 | 0.923 | 1.2 | 0.893 | 1.12 |
| CCN(CC)C(=S)SSC(=S)N(CC)CC [Disulfiram] | 0.456 | 0.291 | 0.0708 | 0.0241 |
| COc1cc2/c(=N/c3ccc(Br)cc3F)nc[nH]c2cc1OCC1CCN(C)CC1 [Vandetanib (ZD6474)] | 1.07 | 1.05 | 0.264 | 0.266 |
| O=c1cc(-c2ccccc2)oc2cc(O)cc(O)c12 [Chrysin] | 0.977 | 1.08 | 0.978 | 1.18 |
| O=C(CCCCCCC(=O)Nc1ccccc1)NO [Vorinostat (SAHA, MK0683)] | 0.506 | 0.615 | 0.132 | 0.18 |
| CC[C@H]1OC(=O)C[C@@H](O)[C@H](C)[C@@H](O[C@@H]2O[C@H](C)[C@@H](O[C@H]3C[C@@](C)(O)[C@@H](O)[C@H](C)O3)[C@H](N(C)C)[C@H]2O)[C@@H](CC=O)C[C@@H](C)C(=O)/C=C/C(C)=C/[C@@H]1CO[C@@H]1O[C@H](C)[C@@H](O)[C@@H](OC)[C@H]1OC [Tylosin tartrate] | 1.74 | 1.33 | 1.33 | 1.24 |
| O=C(/C=C/c1ccc(O)c(O)c1)c1ccc(O)cc1O [Butein] | 0.836 | 0.916 | 0.609 | 0.483 |
